Measured values from PubChem BioAssay AID445 (National Center for Advancing Translational Sciences (NCATS), 2006).
The whole screen tested about 110,000 compounds, of which about 40 (0.04%) were called active. Inconclusive results, whose numbers are uncertain, are shown with a selection of clear calls. Calls come from the whole dose curve; as a rule, active = well fitted curve in the direction sought with a large enough effect in the signal ratio (not every such curve was filed as active); inconclusive = small, poorly fitted or top-dose-only effect, or a change in a side signal; inactive = flat fitted curve, though single readings scatter; the % refers to the signal ratio. Where the call is inconclusive, the potency comes from a doubtful curve fit.

Experiment: IkB Signaling;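 for IkBa stabilization activation: 0% = basal untreated cells and 100% = reference inhibitor full response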
Settings: ABC-DLBCL IkBa-CBG/CBR dual luciferase ratio (green luciferase fused to IkBa over red control in OCI-Ly3 lymphoma cells), 4 h; IkBa stabilization activation: at 57.1 µM (top of the series), scaled: untreated 0%, proteasome inhibitor 100% unless noted
In short: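 Curves were fitted separately to fusion (green), unfused (red) and ratio luminescence, then classed by r2, magnitude and activity. Cells: OCI-Ly3, 4 h compound plus doxycycline at 37C; 10 uM MG-132 defined full response.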
Potency is the fitted concentration of half-maximal effect.

For `Cn1c(=O)c(C(=S)NC(=O)C2CC2)c(N)n(Cc2ccccc2)c1=O`, which IkBa stabilization activation is on record?
Its IkBa stabilization activation is inconclusive: 7.7% [signal activator].

For `O=C(COC(=O)c1cc(-c2cccs2)nc2ccccc12)NCc1ccco1`, which IkBa stabilization activation is on record?
The IkBa stabilization activation was inconclusive: 0.699% [signal inhibitor].

With `CCN(CC)c1ccc(NC(=O)C2CCCN(S(=O)(=O)c3ccc4c(c3)oc(=O)n4C)C2)c(C)c1` (stereo not given) as the compound, how does the “IkBa stabilization activation” value read?
The value was inactive: 1.99%.

For `CCSc1nnc(-c2cccc(S(=O)(=O)N(CC)CC)c2)n1Cc1ccccc1`, which IkBa stabilization activation is on record?
The IkBa stabilization activation was inconclusive: 1.17% [signal inhibitor].

For `COc1ccccc1CSc1nc2n(n1)C(c1ccccc1)C(C(=O)Nc1ccc(C)cc1)=C(C)N2` (stereo not given), which IkBa stabilization activation is on record?
Its IkBa stabilization activation is inconclusive: 16.4% [signal inhibitor].

With `CCC(Sc1nc2n[nH]c(C)c2c(=N)n1-c1ccc(Br)cc1)C(=O)N(CC)CC` (stereo not given) as the compound, how does the IkBa stabilization activation read?
The IkBa stabilization activation was inconclusive: -7.32% [signal inhibitor].

Which IkBa stabilization activation does the source give for `CCOC(=O)c1c(S(=O)(=O)N2CCN(c3cc(Cl)ccc3C)CC2)c(C)n(C)c1C` here?
The IkBa stabilization activation was inconclusive: 0.949% [signal inhibitor].

Which “IkBa stabilization activation” value does the source give for `CCC(=O)n1nc(-c2ccco2)nc1SCc1ccccc1` here?
The value was inactive: 2.08%.

Which IkBa stabilization activation does the source give for `O=C(c1cccc(C(=O)N2CCN(Cc3ccccc3)CC2)c1)N1CCN(Cc2ccccc2)CC1` here?
The IkBa stabilization activation was inconclusive: 4.04% [signal inhibitor].

With `O=C(Nc1nccs1)c1cc(S(=O)(=O)N2CCCCC2)ccc1Cl` as the compound, how does the IkBa stabilization activation read?
Its IkBa stabilization activation is inconclusive: 1.03% [signal inhibitor].

For `Cc1ccc(SCCNC(=O)CN2C(=O)c3ccccc3S2(=O)=O)cc1`, which “IkBa stabilization activation” value is on record?
The value was inactive: 3.84%.

For `COc1ccccc1CNc1ncncc1-c1ccc(N(C)C)cc1`, which IkBa stabilization activation is on record?
The IkBa stabilization activation was inactive: 1.76% [at 11.4 µM, scaled: untreated 0%, proteasome inhibitor 100%].

With `Cc1cccc(CCNC(=O)CCc2c(C)nc3c(-c4ccc(F)cc4)c(C)nn3c2C)c1` as the compound, how does the IkBa stabilization activation read?
Its IkBa stabilization activation is inconclusive: -1.2% [signal inhibitor].

With `c1ccc(-c2nnc(SCc3cn4ccsc4n3)o2)cc1` as the compound, how does the “IkBa stabilization activation” value read?
The value was inactive: 0.869%.

With `COc1ccc(NC(=O)Cn2c(SCc3c(F)cccc3Cl)nc3ccncc32)cc1OC` as the compound, how does the IkBa stabilization activation read?
Its IkBa stabilization activation is inconclusive: 2.3% [signal inhibitor].

With `CC(C)CC(c1nnnn1C(C)C)N1CCN(c2cccc(Cl)c2)CC1` (stereo not given) as the compound, how does the “IkBa stabilization activation” value read?
Its value is inactive: 2.87%.

For `CCCN(CCC)C(=O)CSc1nc2ccccc2c(=O)n1C1CCCC1`, which IkBa stabilization activation is on record?
Its IkBa stabilization activation is inconclusive: -2.18% [signal inhibitor].

For `CCCOc1ccc(C(=O)Nc2cccc(NC(=O)c3ccc(Cl)cc3Cl)c2)cc1`, which IkBa stabilization activation is on record?
The IkBa stabilization activation was inconclusive: 10.3% [signal inhibitor].

With `CCOc1cccc(C2Oc3nc(SC)nnc3-c3ccccc3N2C(C)=O)c1OC` (stereo not given) as the compound, how does the “IkBa stabilization activation” value read?
The value was inactive: -2.44%.

With `Cc1cc(C)cc(NC(=O)Cn2c(C)cc(C)c(C#N)c2=O)c1` as the compound, how does the IkBa stabilization activation read?
The IkBa stabilization activation was inconclusive: 0.795% [signal inhibitor].

For `CC(=O)Nc1ccc(NC(=O)c2c(-c3ccccc3)noc2C)cc1`, which “IkBa stabilization activation” value is on record?
The value was inactive: 0.712%.

For `O=C(O)c1ccc(CSc2nc3cccnc3n2Cc2cccc(F)c2)cc1`, which IkBa stabilization activation is on record?
The IkBa stabilization activation was inconclusive: 1.82% [signal inhibitor].

Which “IkBa stabilization activation” value does the source give for `Nc1ncc(S(=O)(=O)N2CCN(c3ccccc3)CC2)cn1` here?
Its value is inactive: -1.77%.

For `O=C(c1ccco1)N1CCN(C(=O)c2cc3c(s2)-c2ccccc2OC3)CC1`, which IkBa stabilization activation is on record?
The IkBa stabilization activation was inconclusive: 4.31% [signal inhibitor].

For `CC1CCC(C(C)C)C(OC(=O)COC(=O)c2ccc(=O)[nH]c2)C1` (stereo not given), which IkBa stabilization activation is on record?
The IkBa stabilization activation was inconclusive: 0.79% [signal inhibitor].

For `COCCNS(=O)(=O)c1ccc(OCC(=O)OC)c(Cl)c1`, which “IkBa stabilization activation” value is on record?
Its value is inactive: 0.389%.

With `COc1ccc(OC)c(NC(=O)C2CCCN2C(=O)C2CCC(C)CC2)c1` (stereo not given) as the compound, how does the “IkBa stabilization activation” value read?
The value was inactive: -2.02%.

Which IkBa stabilization activation does the source give for `COc1cc(NC(=O)CSc2ccc(-c3sc(C)nc3C)nn2)cc(OC)c1` here?
The IkBa stabilization activation was inconclusive: 1.69% [signal inhibitor].

For `COc1ccc(N2CCN(C(=O)c3ccc(CS(=O)c4cccc(C)c4)o3)CC2)cc1` (stereo not given), which IkBa stabilization activation is on record?
Its IkBa stabilization activation is inconclusive: 0.821% [signal inhibitor].

For `COc1ccc(Cl)cc1NC(=O)c1oc2ccc(S(=O)(=O)N3CCCCC3)cc2c1C`, which IkBa stabilization activation is on record?
The IkBa stabilization activation was inconclusive: 1.65% [signal inhibitor].

With `CCN(c1ccc(C)cc1C)S(=O)(=O)c1nnc(NC(=O)c2ccc(F)cc2)s1` as the compound, how does the “IkBa stabilization activation” value read?
The value was inactive: -0.759%.

With `CC(C)CCOCC(=O)Nc1cccc(C(=O)O)c1` as the compound, how does the Potency read?
The Potency was inconclusive: 15.8 µM [signal inhibitor, partial curve].

Which Potency does the source give for `Cc1ccc2oc(=O)c(-c3nc(-c4cccs4)no3)cc2c1` here?
Its Potency is inconclusive: 31.6 µM [signal inhibitor].

With `COc1cccc(-c2cc(C(=O)Nc3ccc(OC)cc3OC)no2)c1` as the compound, how does the “IkBa stabilization activation” value read?
The value was inactive: 0.303%.

For `O=c1c(-c2cccs2)nc2cnc(N3CCNCC3)nc2n1-c1ccccc1`, which IkBa stabilization activation is on record?
Its IkBa stabilization activation is inactive: 0.154% [at 11.4 µM, scaled: untreated 0%, proteasome inhibitor 100%].
